# Measurements taken from the BET-seq Pho4 binding data (Le et al. 2018).
# This is one part of the list. The energies were worked out here from pooled read counts, against the library average; single values are noisy.
# Molecular target: T1, Pho4 (S. cerevisiae) (UniProt P07270)
# T1 sequence: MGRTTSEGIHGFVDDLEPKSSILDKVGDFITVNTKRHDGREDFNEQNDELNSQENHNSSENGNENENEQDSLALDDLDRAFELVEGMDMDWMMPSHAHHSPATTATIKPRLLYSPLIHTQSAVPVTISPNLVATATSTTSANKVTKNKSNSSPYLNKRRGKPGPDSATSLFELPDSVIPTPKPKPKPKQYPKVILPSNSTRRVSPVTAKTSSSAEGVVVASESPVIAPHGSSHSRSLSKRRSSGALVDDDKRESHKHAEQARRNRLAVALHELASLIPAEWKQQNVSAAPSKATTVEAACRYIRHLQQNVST
# Assay: relative binding free energy (BET-seq); higher = weaker binding
# Conditions: reference: library average
row,Sequence,relative binding free energy [kJ/mol]
1,AGTGGCACGTGGGTCC,-0.962
2,TTCGGCACGTGTCTTG,-0.377
3,AATGTCACGTGTTTGA,0.418
4,TTGCTCACGTGAAATG,2.13
5,CTGTGCACGTGCTGTT,-0.377
6,TCGTCCACGTGTTGGG,-0.0837
7,ATGTACACGTGTATGT,-0.251
8,GTTTACACGTGATTCG,1.21
9,GAGGTCACGTGGGCGA,0.335
10,TACTGCACGTGGTAAG,-0.126
11,GGGGGCACGTGTGTGA,-0.293
12,GTGGCCACGTGATAGG,1.09
13,GTCTGCACGTGAGTTT,1.26
14,GAATGCACGTGAAGTG,1.05
15,TTGGGCACGTGTCTGG,0.126
16,GTAGGCACGTGCAGTG,-0.46
17,CGAGGCACGTGGTGCG,-1
18,GGTGACACGTGGTAGA,-0.251
19,TTCTGCACGTGGATAT,0.293
20,TTTTTCACGTGTCAGT,1.21
21,ACTGGCACGTGCTGGT,-1
22,GCATACACGTGGTGGG,-0.167
23,TCTCTCACGTGGTGTT,0.879

row,Sequence,relative binding free energy [kJ/mol]
1,ATGAACACGTGATGTG,0.586
2,GCGTGCACGTGCGGGT,-0.0418
3,ATAGTCACGTGTCTTA,0.46
4,GTTCGCACGTGGTGCA,-0.251
5,ATTGGCACGTGTCGAT,-0.586
6,TGTGGCACGTGTTAAT,-0.0837
7,AGAGTCACGTGGTTTC,0.544
8,GGAGTCACGTGAAGGC,1.92
9,GACGTCACGTGCTGGT,0.209
10,TGGGCCACGTGGTTAA,-0.126
11,AATTACACGTGCTGTG,0.0837
12,TTATGCACGTGGATGA,-0.251
13,ATTTTCACGTGAATTG,1.38
14,CTTGGCACGTGAGTTT,0.293
15,TGCATCACGTGGGTAT,0
16,TCAGCCACGTGGGGGT,-1.13
17,AGAGTCACGTGTGAAT,0.92
18,ACGGTCACGTGGGGGG,-0.795
19,GGATTCACGTGTTAAG,1.76
20,GAGTTCACGTGGGAGA,1.05
21,CTGATCACGTGTTAAG,0.879
22,TAGTGCACGTGCATAT,0
23,GGTCGCACGTGTGGCT,0.0837

row,Sequence,relative binding free energy [kJ/mol]
1,TGGACCACGTGTGAGT,0.209
2,GTGACCACGTGTGGGT,0.251
3,GATGCCACGTGTCGTG,0.418
4,TAGGACACGTGTTAGT,0.167
5,TCAGGCACGTGTGTTC,-0.0837
6,TGGGCCACGTGGTGGA,-0.669
7,GTGAACACGTGGCTGT,-0.209
8,TAATTCACGTGTGATT,1.59
9,GGTCGCACGTGAAGTG,1.13
10,AGGTGCACGTGTATGT,-0.167
11,CTGCGCACGTGGTTAG,-0.753
12,TAGGTCACGTGTCCGG,0.0418
13,GGCAGCACGTGAGTGA,0.92
14,AACAGCACGTGAGGGG,0.46
15,TGGTGCACGTGCTAGA,-0.126
16,GGGAGCACGTGAATAG,1.26
17,TTACTCACGTGGTATA,0.586
18,TAGGTCACGTGCTGTA,0.167
19,GTGAGCACGTGTTAGG,-0.335
20,GCGGTCACGTGGGGGG,0.126
21,TTGTCCACGTGATGGG,1.3
22,CGGTTCACGTGTATAA,1.26
23,TTGTACACGTGGGTGA,0.126

row,Sequence,relative binding free energy [kJ/mol]
1,GTTTACACGTGGCGTC,0.795
2,TATTTCACGTGTGTAG,1.34
3,GAGTTCACGTGAGCGC,3.26
4,TGACACACGTGGGGGA,-0.92
5,AAGGGCACGTGGGCAT,-1.34
6,GTGATCACGTGTTGCG,0.502
7,ATATTCACGTGCAGGT,0.711
8,GTGCACACGTGAGTTT,1.21
9,TTGGGCACGTGGGGAT,-0.795
10,TAGTTCACGTGATCTT,1.42
11,AGGTGCACGTGCCGTG,-0.753
12,AATATCACGTGGGGAG,0.209
13,CGAAGCACGTGTTTGT,-0.418
14,TTTAGCACGTGTGCAA,-0.335
15,TGATTCACGTGATATA,0.711
16,GATTCCACGTGAGGGT,1.63
17,CAGGACACGTGCGGGT,-0.126
18,TTTTGCACGTGACTGA,0.669
19,GGTTGCACGTGGTTGA,0.46
20,TTTAACACGTGATTCT,1
21,GTGGTCACGTGGGGGC,0.293
22,AAAGGCACGTGGTTTA,-0.879
23,CGTGCCACGTGGTTGT,-1.13

row,Sequence,relative binding free energy [kJ/mol]
1,TGGCTCACGTGTTATT,0.586
2,AGTCACACGTGTGGGC,0.753
3,TCTTGCACGTGTAGAG,0.502
4,AAGTTCACGTGTTGTC,1.09
5,GCGAACACGTGGAGTG,0.753
6,GGTTACACGTGGTTGT,0.795
7,TTTGCCACGTGTAATA,0.502
8,GTGGCCACGTGGTGAT,-0.251
9,CTTTGCACGTGGGCAG,-0.586
10,CTGTGCACGTGTTTTA,-0.837
11,TTTGGCACGTGAGGGA,0.46
12,GATGTCACGTGTTTCG,0.377
13,GAATGCACGTGAGGGG,0.628
14,ATTGCCACGTGTATAG,-0.293
15,TTGTCCACGTGTTGAG,0.251
16,TATGGCACGTGTCTTG,-0.586
17,GATGTCACGTGGAGTA,0.628
18,TAAGTCACGTGAGTGC,0.46
19,GGTCGCACGTGGTAGA,-0.879
20,ATTTCCACGTGTGCTT,0.753
21,TACTTCACGTGAAAGT,2.09
22,TTTAGCACGTGGACTT,-0.167
23,GGAAGCACGTGATGTT,0.0837
